Among all 43,000 compounds or so, about 200 (0.47%) were called active. The inconclusive results got no clear call from the source; some entries with a clear call stand among them for comparison. Calls come from the whole dose curve; as a rule, active = well fitted cell-killing curve with a large enough effect; inconclusive = small, poorly fitted or top-dose-only effect, or effect the other way; inactive = flat fitted curve, though single readings scatter. A potency beside an inconclusive call is a rough fit, not a confirmed value.
Test: Cell viability qHTS assay in S16 Pmp22-F2sN cells; note: nearly all actives have a fitted effect of over 65% in size
Conditions: S16 Pmp22-F2sN Schwann cells (luciferase reporters placed in the Pmp22 gene) viability, CellTiter-Glo, 24 h; activity change, negative = cytotoxicity: at 57.5 µM (top of the series)
Procedure, shortened: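 CellTiter-Glo counter-screen, qHTS, 1536-well. Cells: S16(c9) Pmp22-F2sN, 500-1,000/well in DMEM + 10% FBS. Cpd 23 nL pin transfer, 24 h, 37C/5% CO2. Read: luminescence, CCD imager.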
% is set by controls: 0 for no effect and ±100 for the full control effect; potency is the fitted concentration of half-maximal effect; tags give direction and shape of the fitted curve.

| SMILES | Potency | activity change, negative = cytotoxicity |
| --- | --- | --- |
| COc1cc(NC(=O)CN2CCN(S(=O)(=O)c3ccc(Br)cc3)CC2)cc(OC)c1 | inconclusive: 39.8 µM [rising, single point] | – |
| COc1ccc(NC(=O)CSc2nc(-c3cc(OC)c(OC)c(OC)c3)[nH]c2-c2ccc(F)cc2)cc1 | inconclusive: 28.2 µM [cytotoxic, single point] | – |
| CN(C)c1ccc(CNS(=O)(=O)c2ccc(-c3cc(C(F)(F)F)on3)s2)cc1 | – | inactive: -3.76% |
| Cn1cc(CN(C(=O)Nc2ccccc2)C2CCCCC2)c2ccccc21 | inconclusive: 39.8 µM [cytotoxic, single point] | – |
| CCCCn1c(=N)n(CCCOc2ccc(F)cc2)c2ccccc21 | inconclusive: 31.6 µM [cytotoxic, single point] | – |
| CCCCn1c(=O)c2oc3ccccc3c2n(CC(=O)Nc2ccc(CC)cc2)c1=O | – | inactive: 14.4% |
| CCn1cc2nc(SCc3cc(C)ccc3C)n(CCc3ccccc3)c(=O)c2n1 | inconclusive: 39.8 µM [cytotoxic, single point] | – |
| COC(=O)c1c(C)oc2ccc(N(C(=O)c3ccncc3)S(=O)(=O)c3ccc(OC)cc3)cc12 | inconclusive: 3.55 µM [cytotoxic, full curve] | – |
| CCc1ccc(-n2c(=O)c3c4c(sc3n(Cc3ccccc3C#N)c2=O)CCC4)cc1 | inconclusive: 39.8 µM [rising, single point] | – |
| CCc1ccc(-n2c(=O)c3cccnc3n2CC(=O)NCc2ccccc2)cc1 | – | inactive: -5.21% |
| CCCN(CCC)c1ccc(C2N=C(N)Nc3nc4ccccc4n32)cc1 (stereo not drawn) | inconclusive: 39.8 µM [cytotoxic, single point] | – |
| O=C(NCc1ccc2c(c1)CCN2C(=O)c1ccccc1)Nc1cccc(C(F)(F)F)c1 | – | inactive: 5.76% |
| CN(C)CCCNc1cc(N2CCN(C3CCCCC3)CC2)c2noc3c2c1C(=O)c1ccccc1-3 | inconclusive: 39.8 µM [cytotoxic, single point] | – |
| COCCNC(=O)c1nn(-c2ccc(C)cc2)c(=O)c2c1c1ccccc1n2C | inconclusive: 39.8 µM [cytotoxic, single point] | – |
| COc1c(C)cccc1C(=O)Nc1ccc(-c2nc3ccccc3s2)c(Cl)c1 | inconclusive: 28.2 µM [cytotoxic, single point] | – |
| Cc1c(C(=O)NCc2cccc(Br)c2)oc2ccc3c(c12)C(=O)CC(C)(C)O3 | inconclusive: 39.8 µM [cytotoxic, single point] | – |
| CCN(CC)CCCNC(=O)c1ccc(Cn2c(SCc3ccccc3)nc3cccnc32)cc1 | inconclusive: 39.8 µM [cytotoxic, single point] | – |
| COc1ccc(C)cc1NC(=O)c1nnn(CC(=O)Nc2c(C)cccc2C)c1N | – | inactive: 0.739% |
| Cc1cccc(C)c1NC(=O)C(=O)NCC(c1ccc2c(c1)OCO2)N1CCN(C)CC1 (stereo not drawn) | inconclusive: 39.8 µM [cytotoxic, partial curve, poor fit] | – |

| SMILES | Potency | activity change, negative = cytotoxicity |
| --- | --- | --- |
| CCOc1ccc(CNc2cc(C)nc3nc(-c4cccc(C)c4)nn23)cc1OC | inconclusive: 22.4 µM [cytotoxic, partial curve, poor fit] | – |
| Cc1ccc(NCc2cc3cc4c(cc3n(CC(=O)Nc3ccc(C)cc3)c2=O)OCCO4)cc1 | inconclusive: 12.6 µM [cytotoxic, partial curve, poor fit] | – |
| COc1ccc(CCNC(=O)c2ccc3c(c2)nc2n3CCCCC2)cc1OC | inconclusive: 39.8 µM [rising, single point] | – |
| Clc1ccc2nc(-c3ccc(N4CCOCC4)cc3)c(Nc3ccccc3)n2c1 | inconclusive: 25.1 µM [cytotoxic, partial curve, poor fit] | – |
| O=C(NCc1cccc(Cl)c1)C1CCCN(c2nn3cc(-c4ccc(F)cc4)nc3s2)C1 (stereo not drawn) | inconclusive: 17.8 µM [cytotoxic, single point] | – |
| CC(=O)c1ccc(NC(=O)c2nc(-c3ccccc3)n(-c3ccc(C)cc3)n2)cc1 | – | inactive: 13.3% |
| O=C(CCCn1c(=O)[nH]c2ccc(Br)cc2c1=O)N1CCN(c2cccc(Cl)c2)CC1 | inconclusive: 39.8 µM [cytotoxic, single point] | – |
| CCOc1ccc(-c2c(C)nn3c(C)c(C(=O)NCCN(C)C)cnc23)cc1OCC | – | inactive: 12.2% |
| COc1ccccc1N1CCN(S(=O)(=O)CCNC(=O)Cc2ccc(Cl)cc2)CC1 | inconclusive: 28.2 µM [cytotoxic, single point] | – |
| CCC1=C(c2ccc(C)cc2)S(=O)(=O)N=C1N1CCC(C(=O)NCCc2ccc(Cl)cc2)CC1 | inconclusive: 28.2 µM [cytotoxic, partial curve, poor fit] | – |
| Cc1ccc(CCNC(=O)c2c[nH]c3ccc(S(=O)(=O)Nc4cccc(C(F)(F)F)c4)cc3c2=O)cc1 | – | inactive: -20.9% |
| O=C(CC1N=C2c3ccccc3N=C(SCc3cccc(Cl)c3)N2C1=O)NCCc1ccccc1 (stereo not drawn) | inconclusive: 39.8 µM [cytotoxic, single point] | – |
| O=C(CCC1N=C2c3ccccc3N=C(SCC(=O)Nc3ccc(F)cc3)N2C1=O)NCc1cccs1 (stereo not drawn) | inconclusive: 39.8 µM [cytotoxic, single point] | – |
| Cc1cccc(NC(=O)c2ccc(CNS(=O)(=O)c3ccc4c(c3)C(C)(C)C(=O)N4C)cc2)c1 | inconclusive: 28.2 µM [cytotoxic, partial curve, poor fit] | – |
| O=C(Cn1c(SCC(=O)Nc2ccc(F)cc2)nc2ccccc21)NCc1ccccc1Cl | inconclusive: 31.6 µM [cytotoxic, single point] | – |
| COc1cc(C(=O)N(Cc2cccnc2)c2nc3cc(C)c(C)cc3s2)cc(OC)c1OC | inconclusive: 31.6 µM [cytotoxic, single point] | – |
| CCOC(=O)COc1ccc(F)cc1C(=O)c1ccn2nc(-c3ccc(C)cc3)cc2n1 | inconclusive: 0.282 µM [rising, full curve, poor fit] | – |
| COc1cc(OC)cc(C(=O)Nc2cc(-c3nc4cccnc4s3)ccc2C)c1 | inconclusive: 35.5 µM [cytotoxic, single point] | – |
| O=C(CSc1nc2nccnc2c(=O)n1CCc1c[nH]c2ccccc12)Nc1ccc(F)cc1 | – | inactive: 11.9% |

Reference: PubChem BioAssay AID1508642 (National Center for Advancing Translational Sciences (NCATS), 2021)
